Measured values reported in PubChem BioAssay AID1345083 (National Center for Advancing Translational Sciences (NCATS), 2018).
The campaign covered roughly 94,000 compounds. About 6,200 (6.6%) were called active. This list was built around the results that the source calls inconclusive (neither active nor inactive); the mix of calls is not that of the screen. Calls come from the whole dose curve; as a rule, active = well fitted inhibition curve with a large enough effect; inconclusive = small, poorly fitted or top-dose-only effect; inactive = flat fitted curve, though single readings scatter. Potencies beside an inconclusive call are fits to weak or partial responses and may not hold up.

Assay: Cytotoxic Profiling in HEK 293 Cell Line of Diverse Libraries Using Quantitative High-Throughput Screening; note: nearly all actives have a fitted effect of over 60% in size
Conditions: HEK 293 viability, ATP luminescence (CellTiter-Glo), 48-72 h; series mostly up to 115 µM
Method in brief: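 250 HEK 293 cells/well; compound by pintool; incubated 48 or 72 hr at 37 degree Celsius; CellTiter-Glo added, 10 min RT, luminescence imaged.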
Potency is the fitted concentration of half-maximal effect; tags give direction and shape of the fitted curve.

**Q.** For `O=C(C1CCCC1)N1CCC(CCOc2ccccc2F)C1` (centres undefined), which Potency is on record?
**A.** The Potency was inconclusive: 50.1 µM [inhibitor, partial curve, poor fit].

**Q.** Which Potency does the source give for `O=C(CC1=C2CCCCC2N(Cc2ccccc2)C1=O)NCCc1c[nH]c2ccccc12` (centres undefined) here?
**A.** The Potency was inconclusive: 50.1 µM [inhibitor, partial curve, poor fit].

**Q.** Which Potency does the source give for `O=C1Nc2ccccc2O[C@H]2C[C@@H]1N(C(=O)Cc1ccccc1)C2` here?
**A.** The Potency was “inactive”.

**Q.** Which Potency does the source give for `CC(C)c1ccc(CN2CCCC(O)(CN3CCSCC3)C2=O)cc1` (centres undefined) here?
**A.** Its Potency is inconclusive: 50.1 µM [inhibitor, partial curve, poor fit].

**Q.** For `O=C(CCC1CCN(c2cc(NC3CC3)ncn2)CC1)NCc1ccc(F)cc1`, which Potency is on record?
**A.** Its Potency is “inactive”.

**Q.** Which Potency does the source give for `O=C1NC2(CCCN(C(=O)c3ccccc3F)C2)Oc2ccccc21` (centres undefined) here?
**A.** Its Potency is inconclusive: 126 µM [inhibitor, single point].

**Q.** For `Cc1ccccc1-c1nc(Cn2ccnc2C(C)C)c(C)o1`, which Potency is on record?
**A.** Its Potency is active: 28.2 µM.

**Q.** For `COc1ccc(CCCNC(=O)c2ccc(N3CCC(N(C)C)C3)nc2)cc1` (centres undefined), which Potency is on record?
**A.** The Potency was inconclusive: 79.4 µM [inhibitor, single point].

**Q.** Which Potency does the source give for `O=C(Nc1ccc(Cl)cc1)c1nc2c(o1)CCN(Cc1ccccc1)CC2` here?
**A.** The Potency was inconclusive: 56.2 µM [inhibitor, partial curve, poor fit].

**Q.** For `O=C1NCc2ccccc2CC12CCN(Cc1cc(O)cc(O)c1)C2` (centres undefined), which Potency is on record?
**A.** Its Potency is “inactive”.

**Q.** For `COc1ccc(CNc2ncnc3c2CN(C2CCCNCC2)C(=O)CN3C)cc1` (centres undefined), which Potency is on record?
**A.** Its Potency is “inactive”.

**Q.** Which Potency does the source give for `O=C1NCC2(CCN([S+](=O)([O-])c3cccs3)CC2)Oc2ccccc21` here?
**A.** The Potency was inconclusive: 70.8 µM [inhibitor, partial curve, poor fit].

**Q.** Which Potency does the source give for `Cc1nc(N2CCCCC2)n(CC(=O)Nc2cccc(F)c2)c(=O)c1C` here?
**A.** Its Potency is “inactive”.

**Q.** Which Potency does the source give for `O=C(Nc1ccccc1)Nc1ccc([C@@H](O)[C@H]2COCC(=O)N2CC2CC2)cc1` here?
**A.** The Potency was inconclusive: 112 µM [inhibitor, single point].

**Q.** Which Potency does the source give for `O=C(c1cc(-c2ccccc2F)cc2c1OCCN2Cc1cccnc1)N1CCC1` here?
**A.** Its Potency is inconclusive: 112 µM [inhibitor, partial curve, poor fit].

**Q.** For `CC(C)c1nc(N(C)Cc2cc(-c3cccnc3)no2)c2cnn(C)c2n1`, which Potency is on record?
**A.** Its Potency is inconclusive: 56.2 µM [inhibitor, partial curve, poor fit].

**Q.** Which Potency does the source give for `NCc1ccc(-c2nc(C3CCOC3)nn2Cc2ccccc2)cc1` (centres undefined) here?
**A.** Its Potency is “inactive”.

**Q.** Which Potency does the source give for `CC(C)(Oc1nn(Cc2cccc(Cl)c2)c2ccccc12)C(=O)N1CC(O)C1` here?
**A.** The Potency was inconclusive: 89.1 µM [inhibitor, partial curve].

**Q.** For `CCN(CC)C(=O)CC[C@@H]1CNC(=O)[C@@H]2C[C@H](NCc3cccs3)CN12`, which Potency is on record?
**A.** Its Potency is “inactive”.

**Q.** For `CCN1c2cc(C(=O)Nc3ccc(OC)c(Cl)c3)ccc2C(=O)N2CCCCC21` (centres undefined), which Potency is on record?
**A.** The Potency was active: 35.5 µM.

**Q.** Which Potency does the source give for `COc1ccc(-c2cccc(C(=O)N3CCC(NC(=O)c4ccc(C(F)(F)F)cc4)CC3)c2)nn1` here?
**A.** Its Potency is active: 39.8 µM.

**Q.** With `C=CCn1cc(CN2CCOc3c(O)cc(-c4cccc(Cl)c4)cc3C2)cn1` as the molecule, how does the Potency read?
**A.** The Potency was inconclusive: 50.1 µM [inhibitor, partial curve, poor fit].

**Q.** With `CC(C)(C)c1ccc(-c2cc(C[C@H]3CNCC[C@H]3CC(=O)NC3CCCCC3)no2)cc1` as the molecule, how does the Potency read?
**A.** The Potency was active: 12.6 µM.

**Q.** With `COc1ccc(OC)c(CN2CCOc3ccc(C(=O)NCc4ccccc4F)cc3C2)c1` as the molecule, how does the Potency read?
**A.** Its Potency is inconclusive: 44.7 µM [inhibitor, partial curve, poor fit].

**Q.** Which Potency does the source give for `O=S(=O)(c1cccc(F)c1)N1CC(c2nnc(-c3ccncc3)o2)C2(CCOCC2)C1` (centres undefined) here?
**A.** Its Potency is “inactive”.

**Q.** For `CCCc1noc(-c2ccn3c(CNC(=O)c4cc(Cl)ccc4F)nnc3c2)n1`, which Potency is on record?
**A.** The Potency was “inactive”.

**Q.** With `O=C(Nc1cccc(C(F)(F)F)c1)c1nc2c(o1)CCN(Cc1ccccc1)CC2` as the molecule, how does the Potency read?
**A.** Its Potency is inconclusive: 28.2 µM [inhibitor, full curve, poor fit].

**Q.** With `CCOc1cc(=O)n2c(c1C(=O)Nc1ccc(Cl)c(F)c1)CCCC2` as the molecule, how does the Potency read?
**A.** The Potency was inconclusive: 100 µM [inhibitor, partial curve, poor fit].

**Q.** Which Potency does the source give for `CSCC(=O)N1CCC2(CCN(Cc3cccc(F)c3)CC2)C(CO)C1` (centres undefined) here?
**A.** The Potency was “inactive”.

**Q.** With `Cc1nn(-c2ccccc2)c2c1C(C1CC1)N(C1CCN(C(=O)NC(C)C)C1)C2=O` (centres undefined) as the molecule, how does the Potency read?
**A.** The Potency was “inactive”.

**Q.** For `CC(C)NC(=O)c1cnc2n[nH]c(-c3ccccc3)c2n1`, which Potency is on record?
**A.** The Potency was inconclusive: 141 µM [inhibitor, partial curve, poor fit].

**Q.** Which Potency does the source give for `O=C(Cc1ccc(Cl)cc1)N1CCC(c2n[nH]c(=O)n2Cc2ccc(F)cc2)CC1` here?
**A.** The Potency was “inactive”.

**Q.** Which Potency does the source give for `O=c1cc(N2CCOCC2)oc2c(Nc3ccccc3)nccc12` here?
**A.** Its Potency is “inactive”.

**Q.** With `O=S(=O)(c1cccc2nsnc12)N1CCCC(c2nc(CCOCC3CC3)no2)C1` (centres undefined) as the molecule, how does the Potency read?
**A.** The Potency was “inactive”.

**Q.** Which Potency does the source give for `O=C(Cc1ccccc1Cl)NCc1nnc2cc(-c3nc(C4CC4)no3)ccn12` here?
**A.** The Potency was inconclusive: 70.8 µM [inhibitor, partial curve, poor fit].

**Q.** For `CCOc1ccc(-c2nc(C3CC(=O)N(Cc4ccccc4OC)C3)no2)cc1` (centres undefined), which Potency is on record?
**A.** Its Potency is active: 44.7 µM.

**Q.** With `CC(C)N1C[C@@H]2OCC(=O)N(CC3CCCCC3)[C@@H]2C1` as the molecule, how does the Potency read?
**A.** Its Potency is inconclusive: 141 µM [inhibitor, partial curve, poor fit].

**Q.** With `COc1cccc(CNC(=O)c2cnc3cc(C)nn3c2)c1` as the molecule, how does the Potency read?
**A.** Its Potency is “inactive”.

**Q.** For `COc1cccc([S+](=O)([O-])N2CCN(C(=O)c3nc4cccnc4n(CC(C)C)c3=O)CC2)c1`, which Potency is on record?
**A.** The Potency was “inactive”.

**Q.** With `Cc1cc(N2CCOC(C(F)(F)F)C2)nc(-c2ccccc2)n1` (centres undefined) as the molecule, how does the Potency read?
**A.** The Potency was inconclusive: 79.4 µM [inhibitor, partial curve, poor fit].

**Q.** Which Potency does the source give for `CCCn1cc2c3c(cccc31)CN(C(=O)COc1ccc(F)cc1)CC2` here?
**A.** Its Potency is active: 44.7 µM.

**Q.** Which Potency does the source give for `O=C1CC(c2ccccc2)N(Cc2ccncc2)CCCN(C(=O)CCCc2ccccc2)CCN1` (centres undefined) here?
**A.** Its Potency is inconclusive: 35.5 µM [inhibitor, partial curve, poor fit].

**Q.** Which Potency does the source give for `C#CCNC(=O)c1nc(-c2c(C)cccc2C)c2ccccn12` here?
**A.** The Potency was inconclusive: 112 µM [inhibitor, partial curve, poor fit].

**Q.** For `CCC1=C(C(=O)OC)C(c2ccccc2C)N2C(CC(=O)NCC3CC3)=CSC2=N1` (centres undefined), which Potency is on record?
**A.** Its Potency is inconclusive: 79.4 µM [inhibitor, partial curve, poor fit].
